Here are results for 84 variants from the RNAGym collection of RNA variant scans (doi:10.1093/nar/gkz1192).

Read counts are not given, so values of variants with three or more changes are uncertain.

B1: CPEB3 Ribozyme (parent)
chain: UAACAGGGGGCCACAGCAGAAGCGUUCACGUCGCAGCCCCUGUCAGAUUCUGGUGAAUCUGCGAAUUCUGCUGUAUAUCUC

Variants of B1 are the subject of the data set. The experiment in a line: self-cleavage, relative activity (ratio to wild type); higher = more cleavage; in vitro, sequencing. Summed up: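 After error-prone PCR and barcoding, CPEB3 ribozyme mutant libraries were transcribed with T7 RNA polymerase at 37°C for 5 hours, then given 15 min with DNase I before an EDTA stop, and they cleaved during both steps. Reverse transcription with template switching preceded Illumina sequencing. Relative activity divides a variant's cleaved/total read fraction by the unmutated ribozyme's. At least 5 reads were required per variant, and three batches were averaged.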
As to A18U A20U U41C U48G U49C, the self-cleavage was found to be 0.4.

As for A18G U54C U72A, the self-cleavage worked out at 0.35.

Consider A20C A21G A28U U51A A56C A75G, for which the self-cleavage worked out at 0.06.

G19U U31A C34U G52A A56G U60A: the self-cleavage worked out at 0.07.

On to G19A U48C C79U, for which the self-cleavage was found to be 0.07.

Regarding A20G A28G C44U G55C C62U, the self-cleavage was 0.13.

On to A18U U41C U60C, for which the self-cleavage came out at 0.25.

For the variant A18G U26C G33A U43A, the self-cleavage was 0.22.

Turning to A18G U54C U60A C71A A77G, the self-cleavage is 0.22.

With A18U A65G U66C, the self-cleavage is 0.16.

With A18U U41A U43A U54A U69A U80A, the self-cleavage worked out at 0.07.

For the variant A18G U31A A45U U80A, the self-cleavage stood at 0.18.

For the variant A18G U48C U72A, the self-cleavage came out at 0.17.

For A18G U41C A56C, the self-cleavage is 0.25.

Regarding A20G A21G A35G A45G, the self-cleavage amounted to 0.56.

A20C U66A U67C: the self-cleavage came to 0.15.

Turning to A18G U26A U31C A35U, the self-cleavage was found to be 0.17.

G19U U69A U72C: the self-cleavage was 0.12.

Regarding A18G U43G A45G U76C, the self-cleavage is 0.2.

Take A18U A21G U66C: the self-cleavage worked out at 0.26.

In the case of A20C A21G U48C, the self-cleavage was found to be 0.24.

As for A18U C37U U49C A64G, the self-cleavage worked out at 0.06.

Regarding A18U A20G C23U A35U U51G U72G, the self-cleavage was determined as 0.08.

For A18U A35U A64G, the self-cleavage was determined as 0.09.

Regarding A18U U25C U41A C50U A57G, the self-cleavage turned out to be 0.08.

For the variant A20G A21U G36A, the self-cleavage stood at 0.25.

As to A18G U26C G30A G52U U76C, the self-cleavage was determined as 0.22.

On to A18U G24A U26C U80C, for which the self-cleavage is 0.07.

On to A18U U41C U49C A64U U67A, for which the self-cleavage came out at 0.17.

For the variant A18U A57G C71A, the self-cleavage was determined as 0.22.

Consider A18G U31C A45U U48C U78A C79A, for which the self-cleavage came out at 0.04.

G19U C32U C34U U76A: the self-cleavage came to 0.18.

With G19C U54A A56U A64G U72C U78C, the self-cleavage stood at 0.08.

On to G19C A56G U69A U72C U80C, for which the self-cleavage amounted to 0.24.

With A20C C44G U58A U69C, the self-cleavage came to 0.17.

For the variant A18U U41C U67A, the self-cleavage was determined as 0.36.

G19A U26A A28G U31C C40U U67C U76A: the self-cleavage was determined as 0.04.

Regarding A18U U25C A47U U49C U54C U76A, the self-cleavage was found to be 0.04.

A18U C39G U54C: the self-cleavage turned out to be 0.17.

As to A18U A20U U74C, the self-cleavage was found to be 0.22.

As for A18G U26C A28G A45U U49A U54C, the self-cleavage worked out at 0.05.

For G19A A35G G36C U41A A56G U67A, the self-cleavage was found to be 0.07.

Regarding A18G U26A U69A, the self-cleavage was 0.49.

Take A18G U26C U31C U72G U78C: the self-cleavage worked out at 0.06.

A20G A21G U41C U43C U66C: the self-cleavage is 0.

As to A18G U31C U41C U78A, the self-cleavage turned out to be 0.14.

A18G U41C A47G G52A U66A: the self-cleavage was found to be 0.39.

In the case of A18U C27A A35G C39G U49C, the self-cleavage came to 0.07.

Turning to A18G U26C A28G C50A, the self-cleavage was found to be 0.02.

In the case of G19C U31C A47G U48C A57G U80C, the self-cleavage stood at 0.42.

With A18G U26A A35G U54C U60A, the self-cleavage was 0.37.

For the variant A20G A28G A65G U80G, the self-cleavage came to 0.2.

For G19A A28G U41C A45G U66C U76C, the self-cleavage was determined as 0.13.

Turning to A18G U54C A56G U78C, the self-cleavage amounted to 0.2.

Take A18U C32A U41C: the self-cleavage was 0.14.

G19A A45G U60C U76A: the self-cleavage stood at 0.13.

Take A18U A35G U60A: the self-cleavage turned out to be 0.35.

For the variant A18G U31A U76C, the self-cleavage stood at 0.13.

With A18U A65U C68A, the self-cleavage turned out to be 0.13.

As for A18U G33A U60C U72A U74A, the self-cleavage came out at 0.07.

Consider A18G U31C A35U U43A U54A, for which the self-cleavage was 0.21.

A18G U43C C62G U69G: the self-cleavage came to 0.14.

As to A18U C23U A45C U48C G70U U78C, the self-cleavage is 0.11.

With A18G U43A A57G U58C A64G U76C, the self-cleavage stood at 0.18.

As to A18U A20G U76C, the self-cleavage stood at 0.49.

G19U U49C U66A: the self-cleavage turned out to be 0.07.

Consider G19A A21G U26C U41A U67C, for which the self-cleavage amounted to 0.07.

Turning to A18U A20G G42C, the self-cleavage was determined as 0.09.

Take G19U A35G U69A: the self-cleavage amounted to 0.29.

In the case of A20G A28G A35U G55U, the self-cleavage worked out at 0.18.

Regarding A20G A21G A28C, the self-cleavage was 0.4.

Consider A18U A28G U43A A57U, for which the self-cleavage worked out at 0.23.

On to A18U U26A A47U, for which the self-cleavage is 0.39.

As to G19U U41A U78C, the self-cleavage was found to be 0.2.

G19U C29A U41C A57G U67C U76G: the self-cleavage came to 0.08.

Consider A20C U26C G33U A65G, for which the self-cleavage turned out to be 0.06.

For the variant A18U C23U A45G U60A A65G U80C, the self-cleavage stood at 0.06.

With A18U A28G U72A, the self-cleavage is 0.19.

Take A18U U54C A57G: the self-cleavage came to 0.15.

As to A18U A45G A47U U60C, the self-cleavage is 0.09.

Regarding A20G A21G U26A A47G U76A, the self-cleavage turned out to be 0.05.

Take A18U U31C U49C U60A A65U: the self-cleavage was 0.06.

Consider A18G U60C A77G, for which the self-cleavage was determined as 0.19.

Take A18U U26C U54A U74C: the self-cleavage came to 0.18.
